Laboratory results: the supplement of paper PMC3334620
The full ranking holds about 33,000 sequences; the median of “E-score (-0.5 to 0.5)” is about -0.043, and the highest 2% start at about 0.37. This is one part of the list.

What follows are sequences tested against T1, Upc2 (UniProt Q12151) (assay: PBM E-score (8-mer binding enrichment) (E-score (-0.5 to 0.5)); higher = stronger / more preferred TF binding; most listed sequences are background and not binding sites). Settings: protein concentration: 200 nM; construct: GST-full length.
T1 sequence: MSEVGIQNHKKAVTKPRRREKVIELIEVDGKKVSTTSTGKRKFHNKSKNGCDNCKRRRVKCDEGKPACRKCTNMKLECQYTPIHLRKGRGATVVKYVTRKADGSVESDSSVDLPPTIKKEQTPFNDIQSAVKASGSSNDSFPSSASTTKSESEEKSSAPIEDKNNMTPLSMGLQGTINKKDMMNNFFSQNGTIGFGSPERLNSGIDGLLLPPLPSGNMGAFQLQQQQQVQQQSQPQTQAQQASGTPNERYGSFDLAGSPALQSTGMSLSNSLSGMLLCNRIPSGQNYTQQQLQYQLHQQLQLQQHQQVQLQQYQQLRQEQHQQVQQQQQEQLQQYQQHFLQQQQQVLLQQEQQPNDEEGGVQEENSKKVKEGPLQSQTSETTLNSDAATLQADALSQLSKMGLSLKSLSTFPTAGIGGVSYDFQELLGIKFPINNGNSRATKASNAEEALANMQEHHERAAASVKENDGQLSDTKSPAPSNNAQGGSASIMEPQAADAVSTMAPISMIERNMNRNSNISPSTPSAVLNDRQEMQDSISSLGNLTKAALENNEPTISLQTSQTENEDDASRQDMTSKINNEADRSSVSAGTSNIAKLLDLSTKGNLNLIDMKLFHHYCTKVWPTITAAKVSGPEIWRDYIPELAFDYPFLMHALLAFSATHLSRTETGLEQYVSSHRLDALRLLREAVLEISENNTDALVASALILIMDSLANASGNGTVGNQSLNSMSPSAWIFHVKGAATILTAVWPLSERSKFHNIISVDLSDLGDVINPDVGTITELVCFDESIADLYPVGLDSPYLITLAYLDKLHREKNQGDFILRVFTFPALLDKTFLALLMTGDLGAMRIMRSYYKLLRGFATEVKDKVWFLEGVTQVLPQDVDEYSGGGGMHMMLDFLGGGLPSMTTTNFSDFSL
Method in brief: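 E-scores (a modified Wilcoxon-Mann-Whitney statistic) were assigned by the Universal PBM Analysis Suite to every ungapped eight-base word pooled with its reverse complement. The input came from universal all-10-mer Agilent arrays made double-stranded by primer extension and probed with GST-tagged yeast transcription factors at about 100-200 nM. Fluorescent anti-GST detected bound protein, and masliner normalised the scans.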

Row | Sequence | PBM E-score
1 | CACCCAAA | 0.08
2 | ACCAATAA | -0.2
3 | CTGCGTAA | 0.167
4 | CTTTTGCA | -0.012
5 | TCCCCTAA | -0.151
6 | TCGCAAGA | -0.0178
7 | CTTGACGC | -0.165
8 | GTCGGAGA | 0.00706
9 | ACTGCTGC | -0.189
10 | ATCCAGAG | -0.00777
11 | GTGCAAAA | -0.0818
12 | AGTCAGCG | -0.274
13 | GAACCACC | 0.00279
14 | CATATCAA | -0.0224
15 | GGCCCCAA | -0.103
16 | CGCTAGGC | -0.275
17 | AAGATAGA | -0.167
18 | CAGGTATA | 0.12
19 | ACTTGCGG | -0.0893
20 | ACCAGCTG | -0.00241
21 | TACGTACA | 0.341
22 | AAGTCAGG | -0.0891
23 | CCTTATCG | 0.0525
24 | GCTTCGCC | -0.195
25 | AGGTACGC | 0.163

Row | Sequence | PBM E-score
26 | AGCCGAAT | 0.00349
27 | AACGCTGG | -0.0459
28 | ACGTATTC | 0.119
29 | CACGCGGG | -0.124
30 | CGAGGCTC | 0.207
31 | CTAGCGGA | -0.14
32 | GTAAACCA | 0.0531
33 | ATTCGTAG | 0.285
34 | CTCCCCAC | -0.182
35 | AGTAATGC | -0.142
36 | AACCGAGA | 0.285
37 | ATCCTCTA | -0.167
38 | GGTAAGAA | -0.0315
39 | ATTTTCAG | -0.0121
40 | TCGACAAA | 0.174
41 | GCTAGCCC | -0.317
42 | AGGAGACC | -0.223
43 | CGTGTGCC | -0.175
44 | GCAGCCCC | -0.00473
45 | ATGGCGCG | -0.133
46 | CCGTGCGC | -0.0286
47 | AACGTCGG | 0.176
48 | ATAGCTTA | -0.0835
49 | CATGATGC | -0.211
50 | ATGGCTAG | 0.0528

Row | Sequence | PBM E-score
51 | AGATGCAT | -0.091
52 | CAACTCAG | -0.163
53 | ACCTTACG | 0.235
54 | GGATATTA | -0.0867
55 | AGGTGAGA | -0.184
56 | CTAGTACA | -0.155
57 | GGCTATTA | -0.00322
58 | AGAGCCGA | -0.117
59 | AGCTTTCC | -0.201
60 | ATCCGAAC | 0.146
61 | ACCACGAA | -0.0926
62 | ACGTGATG | -0.0394
63 | AAACAGCG | 0.122
64 | GTGGACGA | -0.165
65 | CGTACCAA | 0.392
66 | CTCTGTGA | -0.189
67 | GACTATTA | -0.0421
68 | TTTAAAAA | 0.0646
69 | CATGTAGG | -0.112
70 | ATGGATAA | -0.083
71 | AGGGAATC | -0.134
72 | ATAACGAT | 0.144
73 | ATGGCAGC | -0.123
74 | AGGAAAAC | 0.0203
75 | CTCACTGC | -0.24

Row | Sequence | PBM E-score
76 | CACGGAGG | -0.124
77 | CATACGGG | 0.367
78 | CAAGTATA | 0.101
79 | AGGGAAGA | -0.199
80 | AGCCGTCG | 0.174
81 | AAATACTG | -0.0466
82 | ACTGCGCG | 0.0273
83 | CGCTGGAC | -0.126
84 | AGTTTCAC | -0.0788
85 | CAGTTGGG | -0.0119
86 | ATAATCGA | 0.12
87 | AGAGTGGG | 0.0465
88 | ACTTCCGC | -0.0321
89 | CAGTTCCC | 0.00928
90 | ACGGCTGC | 0.1
91 | CTCAGGAG | -0.249
92 | CAGACTAG | -0.313
93 | CCATCGAA | -0.132
94 | CACCAGTG | -0.235
95 | ACATGACT | -0.234
96 | CGCAGTCA | -0.228
97 | ACCTGTGG | -0.114
98 | CTATTGCA | 0.00121
99 | ACGCATAC | 0.248
100 | ACCGTCGC | 0.233

Row | Sequence | PBM E-score
101 | AAAATGAC | -0.0293
102 | ACCCTCGA | -0.244
103 | GTACAAGA | 0.13
104 | AGCTGTTA | 0.0162
105 | AGAACCCT | -0.0265
106 | CAAATAGA | -0.0516
107 | CTCCTAGA | -0.195
108 | ATTGAGCA | -0.0735
109 | AAGCTGTA | 0.128
110 | AACCTAGC | -0.0649
111 | CCGTTGGA | -0.249
112 | AGAGAGAG | -0.0416
113 | GATTGTCA | -0.00158
114 | ATAACCCA | -0.0431
115 | TCCGACGA | 0.123
116 | CAATTCCC | -0.165
117 | CATTGCAC | 0.0773
118 | TGCGTCAA | -0.195
119 | ACATTAAT | -0.057
120 | CTTCAATC | -0.0551
121 | CGGAGGGC | -0.066
122 | AGCACTGG | -0.157
123 | CCACTGAG | -0.205
124 | GATCCAAA | -0.0187
125 | TACTACTA | 0.21

Row | Sequence | PBM E-score
126 | AGCTCACC | -0.0772
127 | AGTCCGAG | -0.116
128 | ACAACCAT | 0.0423
129 | ACACTCGT | 0.325
130 | CTCATCTA | 0.0427
131 | TACCGGGA | -0.0406
132 | AGTACAGA | -0.0613
133 | AACATTAA | 0.0427
134 | CGAATCAG | 0.0335
135 | ACCGCATC | -0.136
136 | CGCGATTC | 0.142
137 | AGATCACC | -0.167
138 | GATTCAAA | -0.019
139 | CATCCCAC | -0.0602
140 | GATAGTGC | -0.00518
141 | ACTAATGG | -0.175
142 | CGGCGCCA | 0.0347
143 | ACGCCCCG | 0.0679
144 | CCTGACAC | -0.145
145 | CAGAGCCG | -0.184
146 | ATACCTAG | -0.071
147 | AAGAGGAG | -0.0725
148 | AGTGTGTA | -0.0147
149 | GAGTTATC | 0.187
150 | CACCTTTA | -0.00625

Row | Sequence | PBM E-score
151 | GTAATTGA | 0.0655
152 | GATTTACC | 0.0463
153 | ATGGCAAT | 0.0317
154 | CTAGCTAC | -0.0636
155 | GACCGGGA | -0.224
156 | AATGTCCA | -0.237
157 | CAAATTCA | -0.341
158 | AACAAGCT | 0.055
159 | GTTTGGGA | 0.245
160 | ACACCACT | 0.0512
161 | CCACCCGC | -0.0242
162 | AAACGAAA | 0.46
163 | AAGCTCAG | -0.22
164 | TAAGCTCA | -0.0544
165 | CGTTTGAG | 0.396
166 | CCACACGA | 0.134
167 | GAACTTCC | -0.116
168 | AGATATCA | -0.00096
169 | TGGTATAA | 0.119
170 | CATAACGC | -0.057
171 | CATAGCGC | 0.00114
172 | GATATACC | 0.0293
